The other results are listed elsewhere or left out. Single values of this set are uncertain.
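Also: stains mark DNA, RNA and nucleoli, ER, actin, Golgi, plasma membrane and mitochondria, read by high-content imaging, with DMSO controls at matching solvent concentration.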

The assay relates to U2OS. The assay can be described thus: Cell Painting induction (percent of morphological features significantly changed vs DMSO); higher = stronger morphological change. Particulars: 10 µM; 20 h; run: confirmation repeat. As for the experimental part: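 Cell Painting assay in U2OS cells: compounds at 10 µM for 20 h, six dyes, 579 robust CellProfiler features as Z-scores vs DMSO median (MAD). Induction is the % of significantly changed features (active if ≥5%); relative cell count is in % of DMSO. The primary run holds DCM compounds preselected for induction ≥10%; the confirmation repeat defines active compounds (370 of 549). Replicate agreement is low, attributed to precipitation.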
`COc1cccc(NC(=O)c2cnn(-c3ccc(C)cc3)c2C2CCNCC2)c1`: the “Cell Painting induction” value was active: 27.5%.
`Cc1cccc(N2CCN(C(=O)CCC(=O)N3CCOc4ccc(Cl)cc43)CC2C)c1` (stereo not given): the “Cell Painting induction” value was active: 8.5%.
The value for `CCCCCCC(O)(c1ccc(OC)cc1)C(CN1CCOCC1)c1ccccc1` (stereo not given) was active: 48.2%; that for `COc1ccc(CN2CCN(Cc3ccccc3F)CC2)c(OC)c1` was inactive: 3.3%; that for `Cc1ccc(-n2nc(-c3ccc(F)cc3)c3cnc4cc5c(cc4c32)OCCO5)cc1` was inactive: 0.3%.
The value for `COc1ccc(C)cc1S(=O)(=O)n1cnc2ccccc21` was active: 53.2%; that for `Cn1cc(C(=O)NCc2ccc(Cl)cc2)c(=O)c2cc(S(=O)(=O)N3CCOCC3)ccc21` was inactive: 0.2%.
The value for `Cn1c(=O)c2c(nc(CN3CCN(c4ccccc4)CC3)n2Cc2ccccc2Cl)n(C)c1=O` was inactive: 2.1%.
With `Cc1cc(C(=O)Nc2c(C)nn(Cc3c(Cl)cccc3Cl)c2C)no1`, the “Cell Painting induction” value is active: 19.9%.
Consider `O=C(CCS(=O)(=O)c1cccs1)Nc1ccc(C(=O)NC2CCN(Cc3ccccc3)CC2)cc1`, for which the “Cell Painting induction” value was active: 12.8%.
The value for `CCOC(=O)c1ccc(NC(=S)NC2CC(C)(C)NC(C)(C)C2)cc1` was active: 36.3%; that for `CCc1nc(SCC(=O)Nc2ccc(F)cc2)c2c(=O)n(C)c(=O)n(C)c2n1` was active: 12.1%; that for `CCOc1ccccc1CNC(=O)C1CCN(C(=O)N2CC(C)Oc3ccc(C)cc32)CC1` (stereo not given) was inactive: 2.2%.
For `COc1cccc(C(=O)CC(=O)C(=O)Nc2cc(Cl)c(OC)cc2OC)c1` the value was inactive: 0%; for `CC(C)N(CCCNC(=O)C1CCN(C(=O)c2cc3sccc3n2C)CC1)Cc1ccccc1`, active: 22.8%.

The values above are taken from the supplement of paper PMC11181314.
